Reference: patent US11773160 (ANAVEON, dated 2023)

Columns and labels:
[1] = target: T1, IL-2R on murine splenocytes (C57BL/6); assay: cell-based or functional assay
T1 sequence (P01590 whole entry, looked up): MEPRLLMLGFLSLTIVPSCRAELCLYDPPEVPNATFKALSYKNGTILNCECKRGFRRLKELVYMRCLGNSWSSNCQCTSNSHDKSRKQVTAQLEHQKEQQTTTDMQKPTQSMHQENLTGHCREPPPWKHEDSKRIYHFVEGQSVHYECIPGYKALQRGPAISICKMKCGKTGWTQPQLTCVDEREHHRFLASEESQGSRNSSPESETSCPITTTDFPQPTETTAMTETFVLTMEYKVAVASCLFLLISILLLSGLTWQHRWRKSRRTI
T1 sequence (P16297 whole entry, looked up): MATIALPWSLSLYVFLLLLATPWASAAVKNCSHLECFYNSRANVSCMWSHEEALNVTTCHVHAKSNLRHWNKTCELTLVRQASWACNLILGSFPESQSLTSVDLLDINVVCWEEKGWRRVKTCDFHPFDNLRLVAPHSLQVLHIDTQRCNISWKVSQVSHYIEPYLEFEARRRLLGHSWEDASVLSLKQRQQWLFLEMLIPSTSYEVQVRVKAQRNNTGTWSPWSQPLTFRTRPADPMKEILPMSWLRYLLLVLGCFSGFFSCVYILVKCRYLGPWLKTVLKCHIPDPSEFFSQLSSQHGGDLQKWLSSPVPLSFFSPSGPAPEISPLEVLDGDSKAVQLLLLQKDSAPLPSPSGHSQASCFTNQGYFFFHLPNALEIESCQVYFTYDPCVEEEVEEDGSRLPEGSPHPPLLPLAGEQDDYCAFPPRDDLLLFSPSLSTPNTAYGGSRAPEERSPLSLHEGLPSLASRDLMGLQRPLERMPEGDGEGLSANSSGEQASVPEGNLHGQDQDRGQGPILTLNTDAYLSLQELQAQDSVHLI
T1 sequence (P34902 whole entry, looked up): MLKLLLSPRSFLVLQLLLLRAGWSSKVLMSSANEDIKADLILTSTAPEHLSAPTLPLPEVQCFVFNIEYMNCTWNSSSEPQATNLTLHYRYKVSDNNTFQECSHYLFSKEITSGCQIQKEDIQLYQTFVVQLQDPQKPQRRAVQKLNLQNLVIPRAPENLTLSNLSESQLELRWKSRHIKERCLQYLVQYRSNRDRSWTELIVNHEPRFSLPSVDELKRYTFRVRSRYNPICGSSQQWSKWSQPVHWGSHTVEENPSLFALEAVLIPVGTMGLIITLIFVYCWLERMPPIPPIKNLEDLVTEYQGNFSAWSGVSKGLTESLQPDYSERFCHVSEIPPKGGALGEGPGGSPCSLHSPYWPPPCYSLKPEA

[2] = target: monoclonal anti-human IL-2 antibody Nara1; assay: ELISA, Nara1 coated, fusion protein titrated, anti-human IgG-Peroxidase; lowest concentration with signal at or above the cut point
[3] = target: T2, monoclonal anti-human IL-2 antibody 5344 (BD, 555051); assay: sandwich ELISA, 5344 coated, fusion protein titrated, anti-human IgG-Peroxidase
T2 construct: Coated capture antibody
Method: The antibody-IL-2 fusion proteins were tested on a sandwich ELISA, to assess the correct folding of the IL-2 portion. […] The obtained signals (Absorbance 450-570 nm) were plotted as function of antibody-IL-2 fusion protein concentration (as log value). The $EC50$ values were interpolated fitting the data with GraphPad Prism 8 (Table 6).

[4] = target: T3, trimeric IL-2 receptor on HEK-Blue IL-2 reporter cells (UniProt P01589 22-272; P14784 27-551; P31785 23-369, limits assumed); assay: cell-based or functional assay
T3 sequence (looked up) 1: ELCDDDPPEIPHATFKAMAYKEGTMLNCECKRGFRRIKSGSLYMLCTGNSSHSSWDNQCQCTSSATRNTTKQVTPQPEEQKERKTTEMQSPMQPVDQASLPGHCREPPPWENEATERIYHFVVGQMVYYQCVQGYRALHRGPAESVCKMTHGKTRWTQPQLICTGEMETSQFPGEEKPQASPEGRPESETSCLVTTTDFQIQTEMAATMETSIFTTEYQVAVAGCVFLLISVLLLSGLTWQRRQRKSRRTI
T3 sequence (looked up) 2: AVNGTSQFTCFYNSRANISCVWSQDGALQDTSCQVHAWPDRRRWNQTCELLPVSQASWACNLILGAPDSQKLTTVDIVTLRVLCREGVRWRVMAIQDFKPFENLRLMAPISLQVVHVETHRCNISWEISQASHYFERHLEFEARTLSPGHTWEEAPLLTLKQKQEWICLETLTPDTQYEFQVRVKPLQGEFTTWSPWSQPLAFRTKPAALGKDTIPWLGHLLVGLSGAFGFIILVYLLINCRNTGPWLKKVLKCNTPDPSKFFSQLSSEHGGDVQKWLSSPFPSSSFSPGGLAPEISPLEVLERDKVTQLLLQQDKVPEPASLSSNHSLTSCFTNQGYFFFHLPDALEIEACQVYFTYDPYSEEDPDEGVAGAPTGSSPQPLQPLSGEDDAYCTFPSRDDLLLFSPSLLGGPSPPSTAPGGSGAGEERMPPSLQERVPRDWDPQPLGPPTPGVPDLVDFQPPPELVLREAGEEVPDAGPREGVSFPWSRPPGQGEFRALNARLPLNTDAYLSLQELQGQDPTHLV
T3 sequence (looked up) 3: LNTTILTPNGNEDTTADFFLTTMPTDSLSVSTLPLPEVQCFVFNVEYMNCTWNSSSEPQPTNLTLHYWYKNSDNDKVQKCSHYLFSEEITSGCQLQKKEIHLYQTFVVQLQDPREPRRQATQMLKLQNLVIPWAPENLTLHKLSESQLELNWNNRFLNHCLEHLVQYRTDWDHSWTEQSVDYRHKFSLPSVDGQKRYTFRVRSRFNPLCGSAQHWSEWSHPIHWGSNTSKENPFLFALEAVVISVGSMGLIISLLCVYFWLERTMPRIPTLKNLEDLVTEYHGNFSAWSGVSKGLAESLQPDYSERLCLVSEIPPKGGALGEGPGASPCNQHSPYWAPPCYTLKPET

B1: EAD406 (other)
heavy: EVQLVQSGAEVKKPGESLKISCKGSGYAFTNYLIEWVRQMPGKGLEWMGVINPGSGGTNYNEKFKGQVTISADKSISTAYLQWSSLKASDTAMYYCARWRGEGYYAYFDVWGQGTTVTVSSASTKGPSVFPLAPSSKSTSGGTAALGCLVKDYFPEPVTVSWNSGALTSGVHTFPAVLQSSGLYSLSSVVTVPSSSLGTQTYICNVNHKPSNTKVDKRV[omitted - human IgG1 Fc with changes]
light: AIRLTQSPSSFSASTGDRVTITCKASQSVDYNFHLRPRDLISNINVIVLELKGSETTFMCEYADETATIVEFLNRWITFSQSIISTLTPTSSSTKKTQLQLEHLLLDLQMILNGINNYKNPKLTRMLTFKFYMPKKATELKHLQCLEEELKPLEEVLNLAQSKGDSYMNWYQQKPGKAPKLLIYAASNLESGVPSRFSGSGSGTDFTLTISSLQSEDFATYYCQQSNEDPYTFGGGTKVEIKRTVAAPSVFIFPPSDEQLKSGTASVVCLLNNFYPREAKVQWKVDNALQSGNSQESVTEQDSKDSTYSLSSTLTLSKADYEKHKVYACEVTHQGLSSPVTKSFNRGEC
notes: the light chain entry holds VL-linker 1-IL2-linker 2-VL-CL; also called IL-2 fusion protein to antibody A, linker 1 0 AA, linker 2 1 AA
EC50 CD8 cells (nM), pSTAT5 MFI [1]: 15.7 nM | EC50 NK cells (nM), pSTAT5 MFI [1]: 5.2 nM | EC50 Treg cells (nM), pSTAT5 MFI [1]: 22 nM | Lowest concentration (nM) OD450-570 ≥ CP [2]: 7.5 nM | EC50 [3]: 0.11 nM | EC50 (M), SEAP of HEK-Blue IL-2 reporter cells [4]: 3.59e-12 M

B2: XFO227 (other)
heavy: EVQLVQSGAEVKKPGESLKISCKGSGYAFTNYLIEWVRQMPGKGLEWMGVINPGSGGTNYNEKFKGQVTISADKSISTAYLQWSSLKASDTAMYYCARWRGEGYYAYFDVWGQGTTVTVSSASTKGPSVFPLAPSSKSTSGGTAALGCLVKDYFPEPVTVSWNSGALTSGVHTFPAVLQSSGLYSLSSVVTVPSSSLGTQTYICNVNHKPSNTKVDKRV[omitted - human IgG1 Fc with changes]
light: AIRLTQSPSSFSASTGDRVTITCKASQSVDYGGNFHLRPRDLISNINVIVLELKGSETTFMCEYADETATIVEFLNRWITFSQSIISTLTPTSSSTKKTQLQLEHLLLDLQMILNGINNYKNPKLTRMLTFKFYMPKKATELKHLQCLEEELKPLEEVLNLAQSKGGGDSYMNWYQQKPGKAPKLLIYAASNLESGVPSRFSGSGSGTDFTLTISSLQSEDFATYYCQQSNEDPYTFGGGTKVEIKRTVAAPSVFIFPPSDEQLKSGTASVVCLLNNFYPREAKVQWKVDNALQSGNSQESVTEQDSKDSTYSLSSTLTLSKADYEKHKVYACEVTHQGLSSPVTKSFNRGEC
notes: also called IL-2 fusion protein to antibody A, linker 1 2 AA, linker 2 3 AA
EC50 CD8 cells (nM), pSTAT5 MFI [1]: 8 nM | EC50 NK cells (nM), pSTAT5 MFI [1]: 2.7 nM | EC50 Treg cells (nM), pSTAT5 MFI [1]: 10.6 nM | Lowest concentration (nM) OD450-570 ≥ CP [2]: 2.5 nM | EC50 [3]: 0.14 nM | EC50 (M), SEAP of HEK-Blue IL-2 reporter cells [4]: 3.03e-12 M

B3: QTY065 (other)
heavy: EVQLVQSGAEVKKPGESLKISCKGSGYAFTNYLIEWVRQMPGKGLEWMGVINPGSGGTNYNEKFKGQVTISADKSISTAYLQWSSLKASDTAMYYCARWRGEGYYAYFDVWGQGTTVTVSSASTKGPSVFPLAPSSKSTSGGTAALGCLVKDYFPEPVTVSWNSGALTSGVHTFPAVLQSSGLYSLSSVVTVPSSSLGTQTYICNVNHKPSNTKVDKRV[omitted - human IgG1 Fc with changes]
light: AIRLTQSPSSFSASTGDRVTITCKASQSVDYGGGNFHLRPRDLISNINVIVLELKGSETTFMCEYADETATIVEFLNRWITFSQSIISTLTPTSSSTKKTQLQLEHLLLDLQMILNGINNYKNPKLTRMLTFKFYMPKKATELKHLQCLEEELKPLEEVLNLAQSKGGGGDSYMNWYQQKPGKAPKLLIYAASNLESGVPSRFSGSGSGTDFTLTISSLQSEDFATYYCQQSNEDPYTFGGGTKVEIKRTVAAPSVFIFPPSDEQLKSGTASVVCLLNNFYPREAKVQWKVDNALQSGNSQESVTEQDSKDSTYSLSSTLTLSKADYEKHKVYACEVTHQGLSSPVTKSFNRGEC
notes: also called IL-2 fusion protein to antibody A, linker 1 3 AA, linker 2 4 AA
EC50 CD8 cells (nM), pSTAT5 MFI [1]: 13.9 nM | EC50 NK cells (nM), pSTAT5 MFI [1]: 2 nM | EC50 Treg cells (nM), pSTAT5 MFI [1]: 8.3 nM | Lowest concentration (nM) OD450-570 ≥ CP [2]: 22.5 nM | EC50 [3]: 0.14 nM | EC50 (M), SEAP of HEK-Blue IL-2 reporter cells [4]: 3.22e-12 M

B4: FJC828 (other)
heavy: EVQLVQSGAEVKKPGESLKISCKGSGYAFTNYLIEWVRQMPGKGLEWMGVINPGSGGTNYNEKFKGQVTISADKSISTAYLQWSSLKASDTAMYYCARWRGEGYYAYFDVWGQGTTVTVSSASTKGPSVFPLAPSSKSTSGGTAALGCLVKDYFPEPVTVSWNSGALTSGVHTFPAVLQSSGLYSLSSVVTVPSSSLGTQTYICNVNHKPSNTKVDKRV[omitted - human IgG1 Fc with changes]
light: AIRLTQSPSSFSASTGDRVTITCKASQSVDYGGGGNFHLRPRDLISNINVIVLELKGSETTFMCEYADETATIVEFLNRWITFSQSIISTLTPTSSSTKKTQLQLEHLLLDLQMILNGINNYKNPKLTRMLTFKFYMPKKATELKHLQCLEEELKPLEEVLNLAQSKGGGGSDSYMNWYQQKPGKAPKLLIYAASNLESGVPSRFSGSGSGTDFTLTISSLQSEDFATYYCQQSNEDPYTFGGGTKVEIKRTVAAPSVFIFPPSDEQLKSGTASVVCLLNNFYPREAKVQWKVDNALQSGNSQESVTEQDSKDSTYSLSSTLTLSKADYEKHKVYACEVTHQGLSSPVTKSFNRGEC
notes: also called IL-2 fusion protein to antibody A, linker 1 4 AA, linker 2 5 AA
EC50 CD8 cells (nM), pSTAT5 MFI [1]: 5.8 nM | EC50 NK cells (nM), pSTAT5 MFI [1]: 1.9 nM | EC50 Treg cells (nM), pSTAT5 MFI [1]: 8.4 nM | Lowest concentration (nM) OD450-570 ≥ CP [2]: 2.5 nM | EC50 [3]: 0.28 nM | EC50 (M), SEAP of HEK-Blue IL-2 reporter cells [4]: 3.16e-12 M
